Data on 115 sequences can be found in the BET-seq Pho4 binding data (Le et al. 2018).

The other results are listed elsewhere or left out. Values were computed here from the reads of four pooled replicates and scatter widely.

This experiment has as its target T1, Pho4 (S. cerevisiae) (UniProt P07270).
T1 sequence: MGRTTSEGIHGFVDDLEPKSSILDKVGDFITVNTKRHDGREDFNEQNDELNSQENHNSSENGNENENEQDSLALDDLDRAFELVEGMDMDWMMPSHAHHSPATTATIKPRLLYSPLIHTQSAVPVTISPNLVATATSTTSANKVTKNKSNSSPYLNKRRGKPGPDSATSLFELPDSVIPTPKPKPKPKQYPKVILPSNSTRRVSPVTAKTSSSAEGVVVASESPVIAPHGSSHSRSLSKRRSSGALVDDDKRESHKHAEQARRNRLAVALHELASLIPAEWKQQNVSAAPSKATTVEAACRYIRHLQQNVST
In words: relative binding free energy (BET-seq); higher = weaker binding. The settings on record: reference: library average.
GTATTCACGTGGGATA: the “relative binding free energy” value stood at 0.21 kcal/mol. Next, AAGGGCACGTGAGTGC: 0.14 kcal/mol.

TGGTCCACGTGTTAGT: the “relative binding free energy” value was determined as 0.06 kcal/mol. Next, TGCCGCACGTGATATG: 0.22 kcal/mol; TTTTGCACGTGGCTGA: -0.08 kcal/mol. Turning to TGCATCACGTGTAGTT, the “relative binding free energy” value was 0.14 kcal/mol.

Regarding GTTACCACGTGTGTGG, the “relative binding free energy” value was -0.02 kcal/mol.

For the sequence TGCGGCACGTGAGTCA, the “relative binding free energy” value came out at 0.18 kcal/mol. Regarding TGGATCACGTGGCATT, the “relative binding free energy” value is 0.28 kcal/mol. With AGGTCCACGTGTTTTT, the “relative binding free energy” value stood at 0.11 kcal/mol. In the case of ATGATCACGTGATAGT, the “relative binding free energy” value worked out at 0.25 kcal/mol. In the case of CTGTCCACGTGGGTGG, the “relative binding free energy” value was -0.27 kcal/mol. Next, TGTATCACGTGAGATA: 0.33 kcal/mol. Next, AATAACACGTGGCGGT: 0.03 kcal/mol; GAGGACACGTGGGGAA: -0.01 kcal/mol; TTTTACACGTGATGAG: 0.28 kcal/mol. Turning to TTGGTCACGTGTAGTT, the “relative binding free energy” value is 0.11 kcal/mol.

As to GTTTACACGTGTTAGG, the “relative binding free energy” value was found to be 0.23 kcal/mol. The value for GGTCTCACGTGAATGG was 0.37 kcal/mol; that for ATCTGCACGTGGTGAG was 0.03 kcal/mol; that for GTTAGCACGTGAAATG was 0.18 kcal/mol. As to ATGGGCACGTGCTGAT, the “relative binding free energy” value was -0.15 kcal/mol.

Turning to GTGTTCACGTGTTTAT, the “relative binding free energy” value amounted to 0.31 kcal/mol. Next, AGGGTCACGTGTAAGG: 0.13 kcal/mol; GGATGCACGTGTTGGT: 0.07 kcal/mol; GGGTGCACGTGTGTAT: 0.03 kcal/mol. The value for TGTAACACGTGTTCTT was -0.02 kcal/mol; that for TAGATCACGTGTTGGC was 0.12 kcal/mol; that for CGGTTCACGTGGGGCA was 0.11 kcal/mol. The value for ATTTTCACGTGGGGGG was 0.18 kcal/mol; that for ATATTCACGTGAAGTC was 0.4 kcal/mol; that for ATTTTCACGTGACTGC was 0.43 kcal/mol. On to GATCTCACGTGTTTTG, for which the “relative binding free energy” value was determined as 0.18 kcal/mol.

As to GAGATCACGTGGTCGT, the “relative binding free energy” value was 0.01 kcal/mol. Turning to TTACGCACGTGGTGTA, the “relative binding free energy” value was -0.29 kcal/mol. Next, ATGCGCACGTGTCTGT: 0 kcal/mol; AGGGTCACGTGAGACG: 0.24 kcal/mol. Next, TTGGACACGTGGTGTG: -0.06 kcal/mol. Next, TTTTGCACGTGCATGT: 0.05 kcal/mol; CTGTTCACGTGAATTA: 0.44 kcal/mol; CTTGGCACGTGTTGAA: -0.18 kcal/mol. On to TTTTCCACGTGTGATG, for which the “relative binding free energy” value is -0.01 kcal/mol.

Take TTTTGCACGTGCGTCG: the “relative binding free energy” value was -0.11 kcal/mol.

On to TTATTCACGTGAATTG, for which the “relative binding free energy” value worked out at 0.41 kcal/mol. Take GGAGGCACGTGGTCTG: the “relative binding free energy” value was -0.19 kcal/mol. Next, ATGAACACGTGATAGT: 0.13 kcal/mol.

In the case of TGTATCACGTGCGGGA, the “relative binding free energy” value is 0.17 kcal/mol. As for AGGTGCACGTGAAGAA, the “relative binding free energy” value stood at 0.18 kcal/mol. GGTGACACGTGACGTG: the “relative binding free energy” value turned out to be 0.06 kcal/mol. Turning to TGAAACACGTGTGTTT, the “relative binding free energy” value stood at 0.05 kcal/mol. The value for TTGATCACGTGGACTT was 0.18 kcal/mol; that for TTAAGCACGTGTAGAG was 0.01 kcal/mol.

Regarding GCGCACACGTGGAGGG, the “relative binding free energy” value was determined as 0.08 kcal/mol. Next, GGGAACACGTGTGAGT: 0.2 kcal/mol; TGCAGCACGTGATGGT: 0.2 kcal/mol; GAGGGCACGTGCGTAA: -0.09 kcal/mol.

Turning to GTGTGCACGTGGTTAA, the “relative binding free energy” value is -0.17 kcal/mol. The value for TACTTCACGTGAGTGT was 0.21 kcal/mol. The value for GGTGGCACGTGGGGGG was -0.13 kcal/mol; that for TACGCCACGTGTGGGG was -0.09 kcal/mol; that for ATTAACACGTGTAGTG was -0.12 kcal/mol. The value for TATGGCACGTGGACGA was -0.11 kcal/mol; that for TGTATCACGTGGGGAA was -0.06 kcal/mol. As for TGTCACACGTGAGAGG, the “relative binding free energy” value worked out at 0.13 kcal/mol. The value for GGTCGCACGTGGCGGG was -0.2 kcal/mol; that for TTGTCCACGTGAGTTT was 0.31 kcal/mol. Next, ATGATCACGTGTCAGT: 0.21 kcal/mol; TGCTTCACGTGGTGAT: 0.17 kcal/mol; ATATGCACGTGGGAAA: -0.04 kcal/mol.

With AGTGTCACGTGCTATT, the “relative binding free energy” value was -0.08 kcal/mol.

For the sequence GTACACACGTGAGTTG, the “relative binding free energy” value is 0.19 kcal/mol. On to GCCTTCACGTGGAGTG, for which the “relative binding free energy” value worked out at 0.3 kcal/mol.

In the case of CTTTGCACGTGATGGT, the “relative binding free energy” value was determined as 0.05 kcal/mol. The value for TAACTCACGTGAGTTG was 0.29 kcal/mol; that for ATCGGCACGTGGGTGG was -0.16 kcal/mol; that for TTCGGCACGTGTGGGA was -0.06 kcal/mol. Next, GGGCGCACGTGTTGGT: 0.01 kcal/mol. The value for TTCGGCACGTGATAGA was -0.06 kcal/mol; that for GCGTTCACGTGGTTAA was 0.23 kcal/mol. In the case of CGAGGCACGTGCGTGT, the “relative binding free energy” value is -0.38 kcal/mol. Next, GGTTACACGTGTTTTT: 0.31 kcal/mol; TGTCACACGTGGTACG: 0.07 kcal/mol.

With GGGAGCACGTGTCGTT, the “relative binding free energy” value came out at 0.15 kcal/mol. Regarding ATTGACACGTGGACTG, the “relative binding free energy” value came to 0.04 kcal/mol. As for TTGGCCACGTGCAGGT, the “relative binding free energy” value was -0.06 kcal/mol. Next, GATTACACGTGATTGG: 0.26 kcal/mol. The value for GTTAGCACGTGCATTT was 0.03 kcal/mol; that for TAGCTCACGTGTGAGT was 0.29 kcal/mol; that for GGAGGCACGTGGGACG was -0.24 kcal/mol. The value for GGTTTCACGTGTTTTA was 0.32 kcal/mol. Take GGCGGCACGTGGGTAA: the “relative binding free energy” value was -0.16 kcal/mol.

Turning to GTGAGCACGTGAGGGC, the “relative binding free energy” value worked out at 0.25 kcal/mol.

Turning to GGTCTCACGTGGTGAG, the “relative binding free energy” value was 0.31 kcal/mol. Consider TAAAGCACGTGATGAG, for which the “relative binding free energy” value is -0.01 kcal/mol.

As for TTGTACACGTGTTACG, the “relative binding free energy” value is -0.03 kcal/mol. The value for AAAAACACGTGGGGGG was -0.25 kcal/mol; that for GGAGTCACGTGACGGT was 0.21 kcal/mol.

As to GGGAGCACGTGTGAGG, the “relative binding free energy” value worked out at 0.04 kcal/mol. The value for GAGGACACGTGTTGAT was 0.08 kcal/mol.

As to GGGAACACGTGATAGG, the “relative binding free energy” value stood at 0.16 kcal/mol. Take GGGGTCACGTGTACGC: the “relative binding free energy” value is 0.07 kcal/mol.

Consider GGTTTCACGTGAACGG, for which the “relative binding free energy” value is 0.23 kcal/mol.

Take ATGTGCACGTGGAAGT: the “relative binding free energy” value came to 0.07 kcal/mol.

In the case of TGAGGCACGTGTGGAG, the “relative binding free energy” value is -0.08 kcal/mol. Next, TCGGACACGTGGTGGA: -0.01 kcal/mol; AGGGCCACGTGGTTCG: -0.16 kcal/mol. Next, TCATGCACGTGAGGGT: 0.15 kcal/mol; TGTGACACGTGGAGCG: 0.02 kcal/mol; GGCTTCACGTGGCGGG: 0.31 kcal/mol.

Take AGAGGCACGTGATGGA: the “relative binding free energy” value was 0.01 kcal/mol. Regarding GTGCCCACGTGAAGTT, the “relative binding free energy” value worked out at 0.44 kcal/mol.

As to TTGAGCACGTGATTGG, the “relative binding free energy” value stood at 0.02 kcal/mol. Next, TTTAACACGTGGCGGG: -0.13 kcal/mol.

ACTGGCACGTGAGTTT: the “relative binding free energy” value was 0.13 kcal/mol. As to GGGTTCACGTGGGGAG, the “relative binding free energy” value worked out at 0.3 kcal/mol.
